Measured values from PubChem BioAssay AID485364 (National Center for Advancing Translational Sciences (NCATS), 2010).
Screen size: about 360,000 compounds; about 11,000 (3.1%) were called active. The inconclusive results got no clear call from the source; some entries with a clear call stand among them for comparison. Calls follow the shape of the dose curve; as a rule, active = well fitted inhibition curve with a large enough effect; inconclusive = small, poorly fitted or top-dose-only effect; inactive = no such curve, though single readings can be large or run the other way. Potencies of inconclusive entries are left out as doubtful fits.

molecular target: Schistosoma mansoni thioredoxin glutathione reductase (TGR) (UniProt Q962Y6); experiment: qHTS Assay for the Inhibitors of Schistosoma Mansoni Peroxiredoxins; conditions: purified TGR, DTNB reduction, TNB absorbance 405 nm; activity change, negative = inhibition: at 114 µM (top of the series) unless noted; also: nearly all actives have a fitted effect of over 60% in size
Summary of the method: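 Kinetic colorimetric format: TGR-catalysed, NADPH-driven DTNB reduction monitored via TNB absorbance. Enzyme dispensed at 20 nM; compound exposure 15 min at room temperature before reaction start.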
% is scaled to controls: 0 for no effect and ±100 for the full control effect; potency is read from the fitted curve at half-maximal effect; tags tell the direction and shape of the fitted curve.

| SMILES | Potency | activity change, negative = inhibition |
| --- | --- | --- |
| CC(=O)Cc1nsc(NC(=O)c2ccccc2)n1 | inconclusive [inhibitor, partial curve] |  |
| CN(CC(=O)NCc1ccco1)C(=O)C1CC(=O)N(c2ccc3c(c2)OCCO3)C1 (centres undefined) | inconclusive [inhibitor, single point] |  |
| Cc1scc(C(=O)N/N=C/c2ccc(Cl)s2)c1C |  | inactive: 1.25% |
| CC(=O)c1ccc(N2CCN(S(=O)(=O)c3cc(-c4cc(C)no4)ccc3C(C)C)CC2)cc1 |  | inactive: 5.45% |
| Cc1ccc(SC2CC(=O)N(c3ccc4c(c3)OCCO4)C2=O)cc1 (centres undefined) | inconclusive [inhibitor, partial curve] |  |
| CCn1c(O)c(/C=N/NC(=O)c2ccccc2)c(=O)n(CC)c1=S | inconclusive [inhibitor, partial curve] |  |
| CN1C[C@@H]2C(c3ccccc3)C3(c4cccnc4)CC2(C3)[C@H]1c1ccccc1 (some centres undefined) | inconclusive [inhibitor, partial curve] |  |
| CSCC[C@H](NC(=O)OC(C)(C)C)c1nnc(SCc2ccc(F)cc2)o1 | inconclusive [inhibitor, full curve, poor fit] |  |
| CCCC(=O)N1CCN(c2nc3ccc(Br)cc3s2)CC1 |  | inactive: -1.25% |
| CCOC(=O)N1CCN(C(=O)c2cc(COc3ccc4ncccc4c3)on2)CC1 | inconclusive [inhibitor, partial curve] |  |
| O=C(COC(=O)c1ccc(Br)o1)Nc1ncc(Cl)cc1Cl | inconclusive [inhibitor, partial curve] |  |
| CC(C)c1ccc(NC(=O)NC2CCCCC2)cc1 | inconclusive [inhibitor, single point] |  |
| COc1ccc(-c2nc(CS(=O)(=O)CC(=O)NC3CCCCC3C)c(C)o2)cc1 (centres undefined) | inconclusive [inhibitor, partial curve] |  |
| CC1(C)Cc2c(c(-c3ccco3)nc3sc4c(NCCO)ncnc4c23)CO1 | active: 14.1 µM |  |
| CC1CCN(C(=O)c2ccc([N+](=O)[O-])o2)CC1 | inconclusive [inhibitor, partial curve] |  |
| O=c1c2ccccc2sn1-c1cc(S(=O)(=O)N2CCOCC2)ccc1N1CCOCC1 | active: 25.1 µM |  |
| CC(=O)Nc1ccc(-n2cc(-c3ccccc3)[nH]c2=S)cc1 |  | inactive: -10.3% |
| O=C(NC1CCCc2ccccc21)c1cc(Cl)ccn1 (centres undefined) | inconclusive [inhibitor, partial curve] |  |
| Cn1c(=O)c([N+](=O)[O-])c(-n2cnc3ccccc32)c2ccccc21 | active: 15.8 µM |  |
| COc1ccc2c(c1)C(=O)[C@@H](O)[C@H](c1ccc(OC)c(Br)c1)O2 | inconclusive [inhibitor, partial curve] |  |
| O=C(c1ccc(-c2cccc(Cl)c2Cl)o1)N1CCOCC1 | inconclusive [inhibitor, full curve] |  |
| C=CCn1c(O)c(/C(C)=N/NC(=S)Nc2ccccc2)c(=O)[nH]c1=O | inconclusive [inhibitor, full curve] |  |
| OCC1(CCOc2ccccc2)CCN(Cc2ccc3c(c2)OCCO3)CC1 |  | inactive: 18.6% |
| CCCCC1(C)OC(=O)C(=Cc2ccc(N(C)C)cc2)C(=O)O1 (centres undefined) | inconclusive [inhibitor, partial curve, poor fit] |  |
| O=C(/C=C/c1ccccc1)c1ccccc1 | inconclusive [inhibitor, partial curve] |  |

| SMILES | Potency | activity change, negative = inhibition |
| --- | --- | --- |
| Cc1csc(NC(=O)NC2(C(F)(F)F)Oc3ccccc3O2)n1 | inconclusive [inhibitor, partial curve, poor fit] |  |
| Nc1cnc(CNc2ccccc2Cl)cn1 |  | inactive: -2.95% |
| CCCCC(=O)Nc1ccc(N2CCN(C(=O)c3ccco3)CC2)cc1 | inconclusive [inhibitor, full curve, poor fit] |  |
| O=C(O)c1cc(NN=C2CCN(Cc3ccccc3)CC2)ccc1Cl | inconclusive [inhibitor, full curve] |  |
| Cc1nnc(NC(=O)CSc2nnc(Cc3cccn3C)n2C)s1 | inconclusive [inhibitor, partial curve] |  |
| O=C(NC1CC2CCC(C1)N2Cc1nnnn1Cc1ccco1)NC12CC3CC(CC(C3)C1)C2 (centres undefined) | inconclusive [inhibitor, partial curve] |  |
| CN(C)S(=O)(=O)c1ccc(Cl)c(NC(=O)COC(=O)CNC(=O)c2ccco2)c1 | inconclusive [inhibitor, partial curve] |  |
| CCCS(=O)(=O)Nc1cccc(-c2nc3cccnc3s2)c1 |  | inactive: 9% |
| O=C(O)CN1C(=O)/C(=C\c2cc(Br)ccc2OCc2ccccc2Cl)SC1=S | inconclusive [inhibitor, partial curve] |  |
| COc1ccc(-c2nc(CS(=O)CC(=O)NCc3ccccn3)c(C)o2)cc1 (centres undefined) | active: 17.8 µM |  |
| c1ccc(-c2nnc(CN3CCCc4ccccc43)o2)cc1 | active: 39.8 µM |  |
| O=C(Sc1ccccc1)c1cccc(Cn2cc(C(F)(F)F)ccc2=O)c1 | active: 22.4 µM |  |
| Cc1ccc(CCC(=O)Nc2ccc(C#N)cc2)o1 | inconclusive [inhibitor, partial curve] |  |
| Cc1cc(C(=O)N2CCN(C/C=C/c3ccccc3)CC2)cs1 | inconclusive [inhibitor, full curve] |  |
| CCC(C)N1C(=O)c2ccccc2C1C(=O)NC1CCCCCC1 (centres undefined) |  | inactive: 8.37% |
| CC(=O)n1cc(/C=N/NC(N)=S)c2ccccc21 | inconclusive [inhibitor, single point] |  |
| O=c1cc(CN2CCN(c3ccc(F)cc3)CC2)nc2sccn12 | inconclusive [inhibitor, partial curve] |  |
| CCCc1nc2sc3ccccc3c(=O)c2c(=O)n1Cc1ccco1 | active: 35.5 µM |  |
| CC(C)(C)NC(=O)CN(C(=O)CS(=O)CC(=O)Nc1ccc(F)cc1)c1ccccc1F (centres undefined) | inconclusive [inhibitor, partial curve] |  |
| COc1cc(C(=O)NCc2ccc3[nH]c(C)cc3c2)cc(OC)c1OC | inconclusive [inhibitor, partial curve] |  |
| Cc1cc(C(=O)NCc2cccs2)c(C)o1 | active: 22.4 µM |  |
| COC(=O)C1=C(C)N(c2ccc(Cl)c(Cl)c2)C(=O)C1 | inconclusive [inhibitor, full curve] |  |
| CCOC(=O)c1sc(=NC(=O)c2cccc(C)c2)n(C)c1C |  | inactive: 0.477% |
| COC(=O)c1ccc(NC2CC(=O)N(c3ccccc3C)C2=O)cc1 (centres undefined) | active: 31.6 µM |  |
| Cc1c(Cl)cnc(NC(=O)COC(=O)c2ccc([N+](=O)[O-])s2)c1Cl | inconclusive [inhibitor, partial curve] |  |

| SMILES | Potency | activity change, negative = inhibition |
| --- | --- | --- |
| CC1(C)Cc2cccc(OCC(=O)N3CCN(c4ccccc4)CC3)c2O1 | inconclusive [inhibitor, single point] |  |
| N/C(=N\OC(=O)Cc1ccc([N+](=O)[O-])cc1)c1cccc(Br)c1 |  | inactive: -6.71% |
| CCCOc1ccc(C(O)(CCN2CCCCC2)c2ccccc2OC)cc1 (centres undefined) | inconclusive [inhibitor, partial curve] |  |
| N#CCC(=O)N/N=C/c1c2ccccc2cc2ccccc12 |  | inactive: 5.46% |
| Cc1ccc(O)c(Nc2nc(-c3ccccc3)nc3ccccc23)c1 |  | inactive: -16.6% |
| O=C(C[n+]1ccc(-c2cc(C(=O)Nc3cccc(C(F)(F)F)c3)c3ccccc3n2)cc1)c1cccc([N+](=O)[O-])c1 | active: 44.7 µM |  |
| Cc1ccc(/C=C2\SC(=S)N(Cc3ccccc3)C2=O)o1 | inconclusive [inhibitor, partial curve] |  |
| O=C(Cn1cc([N+](=O)[O-])nc1[N+](=O)[O-])N1CCN(c2ccccc2)CC1 | inconclusive [inhibitor, partial curve] |  |
| O=C(CSc1nccn1Cc1ccccc1)NCc1ccco1 | inconclusive [inhibitor, partial curve] |  |
| Cc1ccc2nsnc2c1S(=O)(=O)N(Cc1ccco1)Cc1cc2cccc(C)c2[nH]c1=O | inconclusive [inhibitor, partial curve] |  |
| O=C(c1[nH]ncc1-c1ccccc1)C1CO1 (centres undefined) | inconclusive [inhibitor, partial curve] |  |
| CS(=O)(=O)N(CC(=O)N1CCCC1)Cc1ccc(F)cc1 | active: 39.8 µM |  |
| CCC(=O)NCC(c1cccs1)S(=O)(=O)c1ccc(C)cc1 (centres undefined) | active: 89.1 µM |  |
| CC(C)c1onc(C(=O)Nc2cccc(Cl)c2)c1[N+](=O)[O-] | inconclusive [inhibitor, partial curve] |  |
| Nc1cc(-c2ccco2)no1 | active: 28.2 µM |  |
| CCCC(c1nnnn1C1CCCC1)N1CCN(C(=O)c2ccco2)CC1 (centres undefined) |  | inactive: -6.43% |
| COc1ccc(C(=O)CSc2nnc(-c3cccnc3)n2Cc2ccco2)cc1 | active: 56.2 µM |  |
| O=C(Nc1ccc(C(=O)O)cc1)/C(=C\c1ccco1)NC(=O)c1ccc(Br)o1 | inconclusive [inhibitor, partial curve] |  |
| Oc1cc(Cc2ccccc2)cnc1CN1CCOCC1 | inconclusive [inhibitor, single point] |  |
| Cc1ccc(OCC(=O)Nc2ccccc2C(=O)NC2CC2)cc1C | active: 35.5 µM |  |
| Cc1ccc(NC(=O)Cn2nc(C(=O)Nc3ccc(C)cc3)ccc2=O)cc1 | inactive |  |
| CCOc1ccc(C(=O)N2CCn3c2nc2ccccc23)cc1 | active: 44.7 µM |  |
| CN1CCC(OC(=O)c2ccccc2Cl)CC1 |  | inactive: 10.2% |
| O=C(NCc1cccnc1)c1noc2c1CCCCC2 |  | inactive: 1.71% |
